Source: PubChem BioAssay AID1645882 (National Center for Advancing Translational Sciences (NCATS), 2021)
The campaign covered roughly 16,000 compounds. About 120 (0.75%) were called active. Not shown: some 4% with an inconclusive outcome. The call rests on the fitted dose curve; in most records, active means well fitted inhibition curve with a large enough effect; inconclusive means small, poorly fitted or top-dose-only effect; inactive means no such curve, though single readings can be large or run the other way. Some of the results follow.

Biological target: Rap guanine nucleotide exchange factor 3 (Homo sapiens) (UniProt O95398)
Chain of UniProt O95398 (O95398 whole entry, looked up): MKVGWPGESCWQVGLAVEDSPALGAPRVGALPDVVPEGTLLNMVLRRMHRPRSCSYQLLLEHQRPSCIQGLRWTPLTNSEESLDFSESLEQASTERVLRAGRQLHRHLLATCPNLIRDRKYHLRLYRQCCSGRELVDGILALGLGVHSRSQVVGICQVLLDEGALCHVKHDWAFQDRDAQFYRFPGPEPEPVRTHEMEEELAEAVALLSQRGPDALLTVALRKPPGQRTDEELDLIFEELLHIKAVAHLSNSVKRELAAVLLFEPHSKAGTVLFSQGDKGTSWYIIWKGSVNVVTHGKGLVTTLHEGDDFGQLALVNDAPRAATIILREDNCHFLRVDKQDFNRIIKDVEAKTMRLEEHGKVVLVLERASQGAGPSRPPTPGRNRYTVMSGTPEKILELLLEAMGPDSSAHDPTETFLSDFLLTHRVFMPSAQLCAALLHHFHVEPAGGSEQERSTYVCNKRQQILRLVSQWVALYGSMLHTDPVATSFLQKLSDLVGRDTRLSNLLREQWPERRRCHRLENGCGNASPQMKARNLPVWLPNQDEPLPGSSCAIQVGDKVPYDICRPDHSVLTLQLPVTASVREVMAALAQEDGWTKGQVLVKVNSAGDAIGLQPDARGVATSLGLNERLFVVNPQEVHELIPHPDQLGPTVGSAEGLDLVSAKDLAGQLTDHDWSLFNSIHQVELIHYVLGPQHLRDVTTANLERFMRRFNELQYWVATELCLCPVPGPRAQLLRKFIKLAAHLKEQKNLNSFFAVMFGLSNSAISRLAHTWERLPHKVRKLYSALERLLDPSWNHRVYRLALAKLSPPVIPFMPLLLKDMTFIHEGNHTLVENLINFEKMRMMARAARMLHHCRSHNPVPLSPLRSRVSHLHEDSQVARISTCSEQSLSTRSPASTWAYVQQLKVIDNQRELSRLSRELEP
Experiment: Validation qHTS for antagonist of cAMP-regulated guanine nucleotide exchange factor 3 (EPAC1);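 further: plate controls were DMSO for no effect and ATA control for full effect; nearly all actives have a fitted effect of over 75% in size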
Conditions: EPAC1 Rap1B-BODIPY-GDP exchange, fluorescence; series mostly up to 150 µM; activity change, negative = inhibition: at the top concentration
In short: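 Nucleotide exchange followed as fluorescence loss when BODIPY-GDP leaves Rap1B (480 nm excitation, 540 nm emission), read at 5 min intervals over 30 min. Reaction: 100 nM EPAC1, 250 nM RAP1B-BODIPY-GDP, 50 uM GDP; ATA and DMSO define normalization.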

Activity change, negative = inhibition, inactive:
CN(C)CC(C)(O)c1ccc2c(c1)CN(C(=O)c1ccc(-n3cccn3)cc1)CCO2 (configuration not stated) 13.3%, O=C(c1cnccn1)N1CCC2(CC1)CCN(c1ccccn1)CC2 10.1%, COC(=O)C1CCN(Cc2ccc3c(c2)CN(C(=O)c2cc(C)nc(C)n2)CCO3)CC1 7.35%, COc1cc2c(N3CCN(C(=O)Nc4ccc(OC(C)C)cc4)CC3)ncnc2cc1OCCCN1CCCCC1 12.9%, CCCN1CCC(=O)N(CCSc2ccccc2)CC1 12.6%, NC(=O)c1cn(Cc2c(F)cccc2F)nn1, Cc1ccnc2c(N)cccc12 26.9%, Cc1cc(O)c2c(c1)C(=O)c1cccc(O)c1C2=O, O=S1(=O)CCO[C@H]2Cc3ccccc3[C@H]2N1Cc1ccc(F)cc1 -11.1%, c1csc(CNc2nc(CN3CCCC(c4nc5ccccc5o4)C3)nc3ccccc23)c1 (configuration not stated) 10.8%, Cc1noc(C)c1-c1cc(N2CCNCC2)ncn1 -16.8%, NC(=O)c1ccc[n+]([C@@H]2OC(COP(=O)([O-])OP(=O)(O)OCC3OC(n4cnc5c(N)ncnc54)C(OP(=O)(O)O)C3O)C(O)C2O)c1 (some centres not stated) -1.32%, COc1cccc(-c2nc(N(C)Cc3ccco3)c3ccccc3n2)c1 -18.3%, COc1ccc(C2(C#N)CCC(C(=O)O)CC2)cc1OC1CCCC1 (configuration not stated) 14.5%, Cc1c(C(=O)NCC2COCCO2)cnn1-c1ncc2c(n1)-c1ccccc1CC2 (configuration not stated) 4.89%, Cc1noc(C)c1-c1nc(Nc2ccccc2)c2ccccc2n1 10.9%, C[C@H](CCC(=O)O)[C@H]1CC[C@H]2[C@@H]3[C@H](O)C[C@@H]4C[C@H](O)CC[C@]4(C)[C@H]3C[C@H](O)[C@]12C 9.24%, O=c1c(O)c(-c2cccc(O)c2)oc2ccccc12 4.73%, O=c1ccc2cc(O)c(O)cc2o1 3.93%, COc1ccc(CCN(C)CCCN2CCc3cc(OC)c(OC)cc3CC2=O)cc1OC 17.2%, Cc1cn(C2OC[C@@H](O)[C@@H]2CO)c(=O)[nH]c1=O (some centres not stated) 2.55%, C=C1C(CCl)(CCl)C2(Cl)C(Cl)C(Cl)C1(Cl)C2(Cl)Cl (configuration not stated) 7.12%, CC(C)c1cc2c(cc1S(=O)(=O)O)[C@@]1(C)CCC[C@@](C)(C(=O)O)[C@@H]1CC2 19.8%, CC(C)CN1CCC(=O)N([C@H](CN=[N+]=[N-])Cc2ccccc2)CC1 1.51%, N#Cc1cccc(NC(=O)N2CCCC3(CCN(C(=O)c4ccncc4)CC3)C2)c1 21.9%, COc1ccc(CNc2ncnc3ccc(-c4c(C)noc4C)cc23)c(OC)c1 -14.7%, FC(F)(F)c1ccccc1-c1cncnc1NCCc1cnc[nH]1 3.78%, COC(=O)c1cc(CNC(=O)c2ccc3ccccc3n2)cc(NC(=O)c2cccc(OC)c2)c1 6.6%, COc1ccc(NC(=O)[C@@H]2CC=C[C@@H]3CCN(Cc4ccccc4)C(=O)[C@@H]32)cc1 11.1%, COc1ccc(CNc2ncnc3ccc(-c4cccc(C#N)c4)cc23)c(OC)c1 -6.31%, CN(C)C(=O)C(CCN1CCC(O)(c2ccc(Cl)cc2)CC1)(c1ccccc1)c1ccccc1, O=C(c1ccccc1C(F)(F)F)N1CCOc2c(cc(-c3nc4ccccc4s3)cc2OC2CCOC2)C1 (configuration not stated) 3.01%, COc1cccc(CNC(=O)c2cnn(-c3ncc4c(n3)-c3ccccc3CCC4)c2C)c1OC 12.6%, O=C(Nc1ccccc1)N1CCCC2(CCN(C(=O)c3ccco3)CC2)C1 19.1%, COc1ccccc1N1CCN(c2nc(CNC(=O)C3CCOC(C)(C)C3)nc3ccccc23)CC1 (configuration not stated) -7.79%, NCC1OC(O[C@H]2[C@H](O)[C@@H](OC3C(O)C(N)CC(N)C3OC3OC(CO)C(O)C(O)C3N)O[C@@H]2CO)C(N)C(O)C1O (some centres not stated) 11.4% [at 75.8 µM], COc1cc(=O)n2c(c1C(=O)NC(C)c1ccco1)CCN(CC=C(C)C)CC2 (configuration not stated) 7.49%, c1nc(N2CCOCC2)c2cc(-c3ccoc3)ccc2n1 3.27%, COc1cccc(Cn2c(=O)c(-c3cccs3)nc3cncnc32)c1 4.2%, CC[N+](CC)(CC)CCOc1ccc(/C=C/c2ccccc2)cc1, Cc1ccccc1C(=O)Nc1ccc(C(=O)N2CCCC(O)c3cc(Cl)ccc32)c(C)c1 (configuration not stated) 10.2%, COc1ccccc1N1CCN(CCN2C(=O)c3ccccc3C(C)(C)C2=O)CC1, COc1ccc(CN2[C@@H](CC(=O)O)c3ccccc3S2(=O)=O)cc1 4.57%, COc1ccc(-c2nc3cnc(N4CCOCC4)nc3n(Cc3cccs3)c2=O)cc1 -0.691%, CC(=O)O[C@H]1CC[C@@]2(C)C(=CC[C@@H]3[C@@H]2CC[C@]2(C)C(c4cccnc4)=CC[C@@H]32)C1 29.3%, O=C(O)c1ccc(OCCCOc2ccc(C(=O)O)cc2)cc1 22.1%, Cc1cccc(C)c1NC(=O)CC12CCCN1CCC2 10.7%, CCc1cc(C(=O)NCC2Cc3cc(-c4ccccc4C(C)=O)ccc3O2)no1 (configuration not stated) 13.2%, COc1ccc(C(=O)N2CCC3(CC2)CN(c2ccncc2)C3)cc1 10%, Cc1ccc2ccccc2[n+]1CCCCI 23.5%, O=C(c1ccccc1)c1ccc(Cn2cc(-c3ccccc3)nn2)cc1 2.27%, COc1ccc(OC)c2c(/C=C/c3c(C)[nH]c4ccccc34)ccnc12 8.38%, NC(=S)NCCC[C@H](N)C(=O)O, COc1cccc(-c2cc(NCc3cccnc3)ncn2)c1 11.5%, CCNc1ncc2nc(C)c(=O)n(Cc3cccc(OC)c3)c2n1 21.6%, Cc1ccc2c(c1)CN(CCNC(=O)c1c(-c3ccccc3)noc1C)CC(C)O2 (configuration not stated) 21.7%, CC(C)NC(=O)N1CCCC2(CCN(C(=O)c3cccn3C)CC2)C1 16.2%, CCc1nc2cc(C(=O)NCC3CCS(=O)(=O)C3)cc(NC(=O)c3ccccc3OC)c2n1C (configuration not stated) 28.3%, CC(C(=O)O)c1ccc2c(c1)[nH]c1ccc(Cl)cc12 (configuration not stated) 14.2%, O=C(c1cccc(Cn2cccn2)c1)N1CCC(n2c(C3CCCO3)nc3cc(C(F)(F)F)ccc32)CC1 (configuration not stated) 7.59%, CC1CC[C@@]2(OC1)OC1CC3C4CC[C@@H]5CC(O)CC[C@@]5(C)C4CC[C@]3(C)C1C2C (some centres not stated) 13.9%, CC(=O)OC(C)(C)C1Cc2cc3ccc(=O)oc3cc2O1 (configuration not stated) 9.85%, CC(=O)N1CCC2(CC1)CCN(c1ccncc1)CC2 11.1%, O=C(C[n+]1csc2ccccc21)c1ccccc1 0.469%, CCCCc1cc2ccccc2c(OCCN(C)C)n1 4.28% [at 75.8 µM], C/C=C(/CC[C@@H](C)[C@H]1CC[C@H]2C3=CC[C@H]4[C@H](C)[C@@H](O)CC[C@]4(C)[C@H]3CC[C@]12C)C(C)C 16.2%, CO/N=C(\C(=O)N[C@@H]1C(=O)N2C(C(=O)O)=C(CSc3nnnn3C)CS[C@H]12)c1csc(N)n1 24.9%, O=c1c(-c2cc(F)cc(F)c2)nc2cncnc2n1-c1ccccc1 10.3%, CCC(C(=O)NC(=O)NC(C)=O)c1ccccc1 (configuration not stated) 23.6%, Cc1cccc(C)c1NC(=O)C(C)N (configuration not stated), Cc1noc(C)c1C(=O)N1CCC[C@@]2(CCN(C(c3ccccc3)c3ccccc3)C2)C1 -3.55%, O=C(O)C1CCCNC1 (configuration not stated), Cc1c(N(C)C)c(=O)n(-c2ccccc2)n1C 14.3%, CN(C)C(=O)c1ccc(-c2cncnc2Nc2ccccc2)cc1 6.8%, O=C(O)C(S)[C@@H](S)C(=O)O (some centres not stated) 7.81%, CCCCC[C@H](O)/C=C/C1=C(CCCCCCC(=O)O)C(=O)CC1 19.9% [at 15.3 µM], O=C(O)C[C@H]1c2cc(F)ccc2S(=O)(=O)N1C1CCCCC1 12.1%, COc1cccc(-c2nccc(NC3CCNCC3)n2)c1 8.74%, CCCc1c(-c2ccc(O)cc2)nn(-c2ccc(O)cc2)c1-c1ccc(O)cc1 20.8% [at 75.8 µM], Cc1ccc(CN2CCCOCCS2(=O)=O)cc1 -2.55%, CC(=O)c1ccc(F)c(-c2cc(C)cc3c2OC(CNC(=O)C2CCCCN2C)C3)c1 (configuration not stated) 3.64%, CS(=O)(=O)Nc1cccc(-c2ccc3ncnc(NC4CC4)c3c2)c1 9.68%, NC(=O)c1ccc2[nH]ccc2c1 -1.73% [at 75.8 µM], COc1cc(=O)n2c(c1C(=O)NCc1ccco1)CCN(Cc1cccc(C(F)(F)F)c1)CC2 1.3%, CSc1nnc(CNC(=O)/C=C/c2ccccc2Cl)n1-c1ccc(F)cc1 -2.3%, COc1ccc(OC)c(CN2CCCC(n3cc(C(=O)N4CCCCC4)nn3)C2)c1 (configuration not stated) -2.37%, Brc1ccc(CN2CC[C@H]3C=CCc4cccc(c43)C2)cc1 9.43%, CC1(C)OC2C(CO)OC(n3cnc4c(=O)[nH]c(N)nc43)C2O1 (configuration not stated) -15.1%, c1ccc(-c2cccc(N3CC[C@@]4(CCCNC4)C3)c2)cc1 11%, COc1ccccc1-c1ccnc(-n2ncc(C(=O)N3CCN(C4CCCC4)CC3)c2-c2ccco2)n1 17.3%, CC(C)NC(=O)N1CC2(CCN(S(=O)(=O)c3ccccc3)CC2)C1 13.6%, O=C(c1cccc(F)c1)N1CCC[C@@]2(CCN(c3ccncc3)C2)C1 -1.54%, COC(=O)C1C(=O)C(C(=O)/C=C/c2ccco2)C(=O)CC1(C)C (configuration not stated) 11.4%, CC(=O)[C@@]1(O)CC[C@H]2[C@@H]3C=C(Cl)C4=CC(=O)CC[C@]4(C)[C@H]3CC[C@@]21C -14.8%, N[C@H](Cc1ccc(O)cc1)C(=O)O 12%, Cc1cnc(C)c(-c2ccc(O)c(CN3CCN(C=O)CC3)c2)n1 9.76%, CN1CCN(c2nc(-c3cccc(NS(C)(=O)=O)c3)nc3ccccc23)CC1 9.6%, COc1cc2c(cc1OC)C1Cc3ccc(OC)c(OC)c3CN1CC2 (configuration not stated) 10.8%, CCOC(=O)C1=C(COCCN)NC(C)=C(C(=O)OC)C1c1ccccc1Cl (configuration not stated), CC(=O)N1CCCC1C(=O)O (configuration not stated) -10.4%, Oc1ccc(/C=C/c2cc(O)cc(O)c2)cc1, C=C1C([C@@]2(C)C(OC(C)=O)CC(=O)O[C@@](C)(COC(C)=O)C2CC(=O)OC)C(OC=O)C(OC(=O)C(O)C(C)CC)[C@]2(C)C(c3ccoc3)CC(=O)C12O (some centres not stated) -7.31%
